A collection of fitness landscapes (doi:10.1016/j.celrep.2020.107928)
In all, about 81,000 sequences were measured (“one-hybrid fitness for binding parS DNA”: median about -0.17, highest 2% from about 0.51 on). The list shows a part of the results.

B1: Caulobacter ParB omega fusion; a variant is named by its letters at X, in order, B8GW30 (parent)
chain: MESVVVGEPGMSEGRRGLGRGLSALLGEVDAAPAQAPGEQLGGSREAPIEILQRNPDQPRRTFREEDLEDLSNSIREKGVLQPILVRPSPDTAGEYQIVAGERAWRAAQRAGLKTVPIMVRELDDLAVLEIGIIENVQRADLNVLEEALSYKVLMEKFERTQENIAQTIGKSXSHVANXMRLLXLPDEVQSYLVSGELTAXHARAIAAAADPVALAKQIIEGGLSVRETEALARKAPNLSAGKSKGGRPPRVKDTDTQALESDLSSVLGLDVSIDHRGSTGTLTITYATLEQLDDLCNRLTRGI

Variants of: B1
Assay: one-hybrid fitness for binding parS DNA (scaled: cognate 1, non-cognate 0); higher = stronger binding
Settings: with parS DNA site
Summary of the method: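 Selection: bacterial one-hybrid in E. coli USO, HIS3 reporter with the site 19 bp from the promoter, 48 hours at 37°C on M9-minus-histidine plus 0.1 mM IPTG and 5 mM 3-AT. Libraries were Caulobacter ParB with four randomised specificity codons, sequenced on Illumina before and after selection. Fitness is the rescaled log change in variant-to-wild-type read ratio, anchored to the cognate and non-cognate sites.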

Row | Variant | one-hybrid fitness for binding parS DNA
1 | NIGW | ≤ 0.2
2 | KRFK | ≤ 0.2
3 | WMIA | ≤ 0.2
4 | YNSC | ≤ 0.2
5 | DNVS | ≤ 0.2
6 | WLNT | ≤ 0.2
7 | LDES | ≤ 0.2
8 | NQTS | ≤ 0.2
9 | KCKK | ≤ 0.2
10 | MSLT | ≤ 0.2
11 | CRHR | ≤ 0.2
12 | RMEP | ≤ 0.2
13 | GSRV | ≤ 0.2
14 | HKTR | ≤ 0.2
15 | KSMI | ≤ 0.2
16 | FGTM | ≤ 0.2
17 | KLFE | ≤ 0.2
18 | TCSV | ≤ 0.2
19 | NELV | ≤ 0.2
20 | GCSS | ≤ 0.2
21 | PPSF | ≤ 0.2
22 | AYAM | ≤ 0.2
23 | NPKY | ≤ 0.2
24 | GMPT | ≤ 0.2

Row | Variant | one-hybrid fitness for binding parS DNA
25 | PYGG | ≤ 0.2
26 | CRHA | ≤ 0.2
27 | QVFY | ≤ 0.2
28 | KRKA | ≤ 0.2
29 | LISM | ≤ 0.2
30 | FATD | ≤ 0.2
31 | DLRY | ≤ 0.2
32 | FGMR | ≤ 0.2
33 | RPQE | ≤ 0.2
34 | GTLL | ≤ 0.2
35 | VQSC | ≤ 0.2
36 | PHAL | ≤ 0.2
37 | NISL | ≤ 0.2
38 | IAHF | ≤ 0.2
39 | QGPQ | ≤ 0.2
40 | SAYS | ≤ 0.2
41 | CKRT | ≤ 0.2
42 | TWRC | ≤ 0.2
43 | DGLF | ≤ 0.2
44 | RWQK | ≤ 0.2
45 | RANE | ≤ 0.2
46 | AAAW | ≤ 0.2
47 | GLPF | ≤ 0.2
48 | TPIL | ≤ 0.2

Row | Variant | one-hybrid fitness for binding parS DNA
49 | SANP | ≤ 0.2
50 | PNAH | ≤ 0.2
51 | IVMG | ≤ 0.2
52 | LGTH | ≤ 0.2
53 | LVEQ | ≤ 0.2
54 | QMYR | ≤ 0.2
55 | NRTG | ≤ 0.2
56 | GLQG | ≤ 0.2
57 | TAVR | ≤ 0.2
58 | QVMV | ≤ 0.2
59 | SAHA | ≤ 0.2
60 | CGAH | ≤ 0.2
61 | NVWG | ≤ 0.2
62 | RKDY | 0.38
63 | SIIG | ≤ 0.2
64 | QKCI | ≤ 0.2
65 | DHCT | ≤ 0.2
66 | WTHQ | ≤ 0.2
67 | NRSN | ≤ 0.2
68 | AYAL | ≤ 0.2
69 | PCTF | ≤ 0.2
70 | RNGG | 0.841
71 | QNQA | ≤ 0.2
72 | LQAQ | ≤ 0.2

Row | Variant | one-hybrid fitness for binding parS DNA
73 | LRCV | ≤ 0.2
74 | QTVG | ≤ 0.2
75 | RHNG | 0.953
76 | ESNG | ≤ 0.2
77 | QTPV | ≤ 0.2
78 | HYAW | ≤ 0.2
79 | HPGS | ≤ 0.2
80 | MASQ | ≤ 0.2
81 | LFSS | ≤ 0.2
82 | HLRS | ≤ 0.2
83 | NLWR | ≤ 0.2
84 | ITNI | ≤ 0.2
85 | TCLC | ≤ 0.2
86 | CPDG | ≤ 0.2
87 | YIVF | ≤ 0.2
88 | TTVS | ≤ 0.2
89 | EVSR | ≤ 0.2
90 | SQLR | ≤ 0.2
91 | QDQT | ≤ 0.2
92 | WRYS | ≤ 0.2
93 | WVQR | ≤ 0.2
94 | RPCD | ≤ 0.2
95 | AYVN | ≤ 0.2
96 | QDPD | ≤ 0.2

Row | Variant | one-hybrid fitness for binding parS DNA
97 | PAGY | ≤ 0.2
98 | HHPR | ≤ 0.2
99 | HHRL | ≤ 0.2
100 | QLHI | ≤ 0.2
101 | ATRC | ≤ 0.2
102 | PCDC | ≤ 0.2
103 | AMCT | ≤ 0.2
104 | CPRT | ≤ 0.2
105 | TPFG | ≤ 0.2
106 | PAGT | ≤ 0.2
107 | EVTF | ≤ 0.2
108 | QIWK | ≤ 0.2
109 | RSDM | ≤ 0.2
110 | VDSR | ≤ 0.2
111 | NIKC | ≤ 0.2
112 | EKTC | ≤ 0.2
113 | SLER | ≤ 0.2
114 | RCKE | ≤ 0.2
115 | RSEY | 0.361
116 | RCYE | ≤ 0.2
117 | NKWR | ≤ 0.2
118 | NMST | ≤ 0.2
119 | IPTS | ≤ 0.2
120 | EICA | ≤ 0.2

Row | Variant | one-hybrid fitness for binding parS DNA
121 | QIKC | ≤ 0.2
122 | SPGY | ≤ 0.2
123 | YHHW | ≤ 0.2
124 | PKSP | ≤ 0.2
125 | HKTW | ≤ 0.2
126 | PSRS | ≤ 0.2
127 | TWKE | ≤ 0.2
128 | IVLR | ≤ 0.2
129 | APIC | ≤ 0.2
130 | IQDW | 0.228
131 | KVNV | ≤ 0.2
132 | YCST | ≤ 0.2
133 | NPPN | ≤ 0.2
134 | STMP | ≤ 0.2
135 | ISTI | ≤ 0.2
136 | GAPV | ≤ 0.2
137 | SLQD | ≤ 0.2
138 | TPVH | ≤ 0.2
139 | WKFT | ≤ 0.2
140 | GCDS | ≤ 0.2
141 | LQMG | ≤ 0.2
142 | YRRN | ≤ 0.2
143 | WMHC | ≤ 0.2
144 | CYYY | ≤ 0.2

Row | Variant | one-hybrid fitness for binding parS DNA
145 | ATHR | ≤ 0.2
146 | KAAR | ≤ 0.2
147 | KTSD | ≤ 0.2
148 | DHKL | ≤ 0.2
149 | NVRT | ≤ 0.2
150 | MDRT | ≤ 0.2
151 | ASVC | ≤ 0.2
152 | HIEG | ≤ 0.2
153 | CIPY | ≤ 0.2
154 | PSSE | ≤ 0.2
155 | TIKG | ≤ 0.2
156 | VIPQ | ≤ 0.2
157 | RNTF | ≤ 0.2
158 | HALW | ≤ 0.2
159 | MLTN | ≤ 0.2
160 | HNTF | ≤ 0.2
161 | HLLP | ≤ 0.2
162 | CAHC | ≤ 0.2
163 | WPTT | ≤ 0.2
164 | LTDS | ≤ 0.2
165 | TWLE | ≤ 0.2
166 | QVVM | ≤ 0.2
167 | SQYW | ≤ 0.2
168 | RWMC | 0.628

Row | Variant | one-hybrid fitness for binding parS DNA
169 | GVQT | ≤ 0.2
170 | QEYR | ≤ 0.2
171 | FDAS | ≤ 0.2
172 | VHHI | ≤ 0.2
173 | YAHL | ≤ 0.2
174 | PRVA | ≤ 0.2
175 | QTNW | ≤ 0.2
176 | TDQF | ≤ 0.2
177 | RVRW | 0.224
178 | HHAA | ≤ 0.2
179 | MERS | ≤ 0.2
180 | IHDS | ≤ 0.2
181 | WVGT | ≤ 0.2
182 | PGSF | ≤ 0.2
183 | VESL | ≤ 0.2
184 | ATDR | ≤ 0.2
185 | IYPY | ≤ 0.2
186 | RFHS | 0.996
187 | TPTK | ≤ 0.2
188 | KQLR | ≤ 0.2
189 | GCLF | ≤ 0.2
190 | QTSH | ≤ 0.2
191 | NITE | ≤ 0.2
192 | IQDR | ≤ 0.2

Row | Variant | one-hybrid fitness for binding parS DNA
193 | AKLH | ≤ 0.2
194 | RCGN | 0.445
195 | VKRS | ≤ 0.2
196 | RCPL | ≤ 0.2
197 | SFLY | ≤ 0.2
198 | SYWS | ≤ 0.2
199 | YHIF | ≤ 0.2
200 | FWMR | ≤ 0.2
201 | NPKE | ≤ 0.2
202 | YWIC | ≤ 0.2
203 | QLGF | ≤ 0.2
204 | RDNG | ≤ 0.2
205 | IQFG | ≤ 0.2
206 | PTKL | ≤ 0.2
207 | MQQW | ≤ 0.2
208 | PCLY | ≤ 0.2
209 | FSMP | ≤ 0.2
210 | SFSC | ≤ 0.2
211 | HQRY | ≤ 0.2
212 | FAIR | ≤ 0.2
213 | PTWC | ≤ 0.2
214 | TAVC | ≤ 0.2
215 | RIHV | ≤ 0.2
216 | EPNC | ≤ 0.2

Row | Variant | one-hybrid fitness for binding parS DNA
217 | YGQG | ≤ 0.2
218 | RGFD | ≤ 0.2
219 | SIMG | ≤ 0.2
220 | TVHC | ≤ 0.2
221 | WGLF | ≤ 0.2
222 | NTEY | ≤ 0.2
223 | FTHT | ≤ 0.2
224 | TVNC | ≤ 0.2
225 | PCPP | ≤ 0.2
226 | RSQL | ≤ 0.2
227 | RCEL | ≤ 0.2
228 | TNEG | ≤ 0.2
229 | MRPK | ≤ 0.2
230 | AGII | ≤ 0.2
231 | TRSF | ≤ 0.2
232 | SLGM | ≤ 0.2
233 | DEMR | ≤ 0.2
234 | GNQG | ≤ 0.2
235 | GRIF | ≤ 0.2
236 | PTGI | ≤ 0.2
237 | ALYM | ≤ 0.2
238 | AGFS | ≤ 0.2
239 | SSEA | ≤ 0.2
240 | NEPT | ≤ 0.2

Row | Variant | one-hybrid fitness for binding parS DNA
241 | KAMC | ≤ 0.2
242 | RPAE | ≤ 0.2
243 | PPYS | ≤ 0.2
244 | AKLF | ≤ 0.2
245 | RIND | 0.258
246 | CKFS | ≤ 0.2
247 | EEYA | ≤ 0.2
248 | DRPT | ≤ 0.2
249 | VNAL | ≤ 0.2
250 | HPNN | ≤ 0.2
251 | IRTQ | ≤ 0.2
252 | GNTK | ≤ 0.2
253 | CCYS | ≤ 0.2
254 | YRQS | 0.208
255 | TQVP | ≤ 0.2
256 | LHVN | ≤ 0.2
257 | SGKF | ≤ 0.2
258 | DQTS | ≤ 0.2
259 | YPNS | ≤ 0.2
260 | RCNS | 0.908
261 | TRMA | ≤ 0.2
262 | WDSP | ≤ 0.2
263 | RLGN | 0.469
264 | ASPG | ≤ 0.2

Row | Variant | one-hybrid fitness for binding parS DNA
265 | DEPL | ≤ 0.2
266 | IKCC | ≤ 0.2
267 | IESL | ≤ 0.2
268 | SSPW | ≤ 0.2
269 | TRQM | ≤ 0.2
270 | RYSM | 0.302
271 | PLIQ | ≤ 0.2
272 | QENG | ≤ 0.2
273 | LCAE | ≤ 0.2
274 | DNSC | ≤ 0.2
275 | CRKW | ≤ 0.2
276 | HCRV | ≤ 0.2
277 | KLPH | ≤ 0.2
278 | RHEC | 0.851
279 | TSRW | ≤ 0.2
280 | VGNT | ≤ 0.2
281 | MRSR | ≤ 0.2
282 | KMAW | ≤ 0.2
283 | NGLT | ≤ 0.2
284 | WNTH | ≤ 0.2
285 | TLYV | ≤ 0.2
286 | WYDG | ≤ 0.2
287 | TSHN | ≤ 0.2
288 | ANWT | ≤ 0.2

Row | Variant | one-hybrid fitness for binding parS DNA
289 | HRMG | 0.211
290 | WNLR | ≤ 0.2
291 | IVKQ | ≤ 0.2
292 | RWMW | ≤ 0.2
293 | TSNS | ≤ 0.2
294 | LCYA | ≤ 0.2
295 | KCCS | ≤ 0.2
296 | ESSG | ≤ 0.2
297 | MKIV | ≤ 0.2
298 | RWHD | ≤ 0.2
299 | KNMS | ≤ 0.2
300 | FTDC | ≤ 0.2
301 | KAHG | ≤ 0.2
302 | PYCL | ≤ 0.2
303 | PLQD | ≤ 0.2
304 | WEER | ≤ 0.2
305 | RNGY | 0.306
306 | VMLG | ≤ 0.2
